# Test results from the supplement of paper PMC11417369.
# ± gives the standard deviation of the averaged measurements. The list shows a part of the results.
# Test system: PfAP2-I AP2 domain 3 (GST-tagged)
# Assay: gcPBM binding intensity (ln(normalized median fluorescence intensity)); higher = stronger DNA binding
# Outline: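 GST-tagged P. falciparum DNA-binding domains, expressed in E. coli (about 25 μg on average), were applied for 1 h to an Agilent 4 × 180k array of primer-extended double-stranded 36-bp intergenic genomic probes plus negative controls. The binding buffer was 1× PBS with 1% milk, 0.2 mg/ml BSA, 0.5% salmon testes DNA and 0.03% Triton X-100. Bound protein was detected with Alexa488 anti-GST antibody and scanned at 488 nm. Binding intensity is the highest Masliner-normalised natural-log median intensity across replicate spots of either probe orientation.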
row,Sequence,gcPBM binding intensity (ln)
1,TCTGTATATTATTCAAGTACACAATATAAATATAAA [XGTACX_site7241],7.72 ± 0.34
2,GATAACTTTTTTCTCACACACAAATATTTTAATCAT [CACACA_site7685],8.03 ± 0.51
3,AAAAATAAAAAAATAAATACGTATACATATATAATA [TGCATGCA_negctrl_site551],7.53 ± 0.55
4,GTATATAATTAAAGTTGTACCCTTAAAAAAGGGAAA [XGTACX_site7278],7.85 ± 0.16
5,TATAATTATATGTATACACACACATACATTTACATA [CACACA_site9061],7.95 ± 0.52
6,AAAATGAAAATGAAAATGAAAATGGGAAAATGTCAA [TGCATGCA_negctrl_site488],7.74 ± 0.85
7,CATATATATCGTAATGCACACATGTAATTTCATAAT [CACACA_site811],11 ± 0.92
8,TTATATATAAGTTTATTCATTTTTTTTTTTTTTTTT [XGTACX_negctrl_site573],8.34 ± 0.19
9,TAAATAAAAAAGAATACACACAGCATGCATAAATAT [CACACA_site237],8.04 ± 0.94
10,ATAAGCTCATGCAGGTGTACACAAAAAGAAAAAAAA [XGTACX_site2433],8.55 ± 0.45
11,ATAATGAAAAGGAACATACACACCCCATATAAATAT [CACACA_site3442],8.4 ± 0.83
12,ACTTATACAAAATGTGCATGTTATATTTACAATAAT [TGCATGCA_site108],8.32 ± 0.58
13,AAATTAAATGTAAGCACACATAAATTATACTCATAT [CACACA_site5782],7.84 ± 0.5
14,GGAATAGTAATATATACACACAAATACATATATATA [CACACA_site67],8.38 ± 0.67
15,TTTATTTTTTAATGATGTACTATTTATCCAGAAAAG [XGTACX_site7750],7.89 ± 0.085
16,TTTTCCAATTTAAAAGCATGCATCTGTTTTTTTTTT [TGCATGCA_site482],7.55 ± 0.97
17,AGAGGTAGAGAGAAAACATGCATAATGATTTTCATA [TGCATGCA_site958],7.74 ± 0.49
18,TAGAGGTATAAAATATGTACTTATAAAAACATGAAT [XGTACX_site8916],7.88 ± 0.48
19,TATATGATATAATATACACACATACAGATATATATA [CACACA_site4440],7.71 ± 0.47
20,AAATTATTAAGTGATATAATATTCTATAGATGGGGA [CACACA_negctrl_site168],7.74 ± 0.47
21,TTTTTATAACTATATTATATAACTTTTGTACGAACT [CACACA_negctrl_site1423],7.63 ± 0.54
22,ACATATAAATAAATAAATATATATATATATATATAT [GTGCAC_negctrl_site378],9.33 ± 0.62

row,Sequence,gcPBM binding intensity (ln)
1,TATTTACACCTAATCACAAATAAAATAAAATCAAAT [CACACA_negctrl_site531],7.86 ± 0.46
2,TAAATCAAAATAATTTAACACACAATTTTAATACTG [CACACA_site8744],7.34 ± 0.54
3,GATAAGGTATTCAAATGTACAAAATGTTTTATATAA [XGTACX_site6863],7.64 ± 0.44
4,TAAAAAAAATATTTTTGTACGAATTAAATTTTTTTT [XGTACX_site4838],7.45 ± 0.61
5,TATGAAATTTTAATTACACACAGGAAAATAAAATGG [CACACA_site4935],8.04 ± 0.68
6,ACATATTTTTAATACACACTCAAAAAAGTACTTAAC [CACACA_site3014],8.2 ± 0.28
7,AAAAAAAGTAAATGTTGTACTATAATATGTAATATA [XGTACX_site7966],7.58 ± 0.34
8,AAATAACACTAATGATGTACTCAACTATTTATAATT [XGTACX_site8183],7.69 ± 0.54
9,TACATATATATTATATGTACTTATATTTTTATAATA [XGTACX_site3452],7.4 ± 0.3
10,ATATACATATCCATATTTATATCTATATTTAAAACA [CACACA_negctrl_site747],7.56 ± 0.62
11,AACCACATACATATAACACACATATACAATCTATAT [CACACA_site1987],8.11 ± 0.45
12,ATATTAACTATCATAACACACACAGTAGACATATTT [CACACA_site6941],7.93 ± 0.59
13,TAAATACATAAATACACACACATATATTATATATAT [CACACA_site4310],8.36 ± 0.5
14,TATCATATATAAAGAGGTACGTAAGAATAGAAAATT [XGTACX_site798],8.26 ± 0.78
15,TTCTTAAAAGGAAAGGTGCAACTTTATCATTTTCTT,9.62 ± 0.12
16,ATATATATTATATAAGTGCATAATATTCTTTCTTTT,10.5 ± 0.25
17,TTTTTCATTTCTGCATTTATTTATAAATAAATATTT [CACACA_negctrl_site368],8.59 ± 0.53
18,TTCAAATATAAATACACACACATAGCTACAAAATAA [CACACA_site4172],7.83 ± 0.49
19,TATAAGAGAATATATACACACAAAAATATATACAGT [CACACA_site1668],7.87 ± 0.64
20,TACACGCATGGACACACACACACACCCATATATATA [CACACA_site4522],8.38 ± 0.87
21,TATATATTTTGTGTCTGTACACATATTATTAATTCC [XGTACX_site7507],7.81 ± 0.099
22,TTTTTTTATCAATGTTGTACTTTTTTTTTTTTCCAT [XGTACX_site8864],7.86 ± 0.59
